In PubChem BioAssay AID1671194 (National Center for Advancing Translational Sciences (NCATS), 2021):
The whole screen tested about 140,000 compounds, of which about 240 (0.17%) were called active. The shares of active, inactive and inconclusive entries below differ from those in the screen. The call rests on the fitted dose curve; in most records, active means well fitted inhibition curve with a large enough effect; inconclusive means small, poorly fitted or top-dose-only effect; inactive means no such curve, though single readings can be large or run the other way. Potencies of inconclusive entries are doubtful fits and often do not repeat. Where a structure was tested more than once in an assay, its records may differ in their call.

Test: Primary qHTS assay for inhibitors of alpha-synuclein gene (SNCA) expression; further: nearly all actives have a fitted effect of over 45% in size;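 on activity change, negative = inhibition: plate controls were DMSO cells for no effect and cell-free wells for full effect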
Conditions: HEK-293 SNCA-luciferase knock-in, luminescence, 24 h; activity change, negative = inhibition: at 57.2 µM (top of the series) unless noted
Potency means the concentration at half of the fitted maximal effect; tags describe the fitted curve by direction and shape.

Potency, inconclusive:
CC(C)Cn1c(=O)c(C(=O)N2CCN(C(=O)C3CC3)CC2)nc2cccnc21 28.2 µM [inhibitor, single point]
CCNC(=O)N(C1CC1)C1CCOC2(CCN(C(=O)Cc3cccc(OC)c3)CC2)C1 (stereo not given) 14.1 µM [inhibitor, partial curve]
COc1ccc(N2CCN(c3nc(C(=O)NCc4ccc(C)c(C)c4)cs3)CC2)cc1 11.2 µM [inhibitor, partial curve, poor fit]
CNCC(=O)N1CCN(Cc2nc(C3CC3)no2)CC(O)C1 (stereo not given) 25.1 µM [inhibitor, single point]
CC(C)N1CCN(C(=O)c2cc3n(n2)CC(c2ccc(Br)cc2)OC3)CC1 (stereo not given) 6.31 µM [inhibitor, full curve, poor fit]
Cc1cccc(C(=O)N2CCC(OC3CCN(Cc4ccccc4)CC3)CC2)c1 39.8 µM [inhibitor, single point]
Cc1c(CN(C)c2cc(C3CC(O)C3)nc(N)n2)[nH]c2ccccc12 (stereo not given) 0.631 µM [inhibitor, full curve, poor fit]
O=C1NCc2ccccc2CC12CCN(Cc1ccc(-c3ccccc3)cc1)CC2 39.8 µM [inhibitor, single point]
COc1ccc(CCNC(=O)c2ccc3c(c2)N(Cc2ccc(F)cc2)C(=O)c2ccccc2S3(=O)=O)cc1OC 39.8 µM [inhibitor, single point]
CC(C)CNC(=O)N1CC(Oc2ccc(-c3noc(C4CCOCC4)n3)cc2)C1 17.8 µM [inhibitor, partial curve, poor fit]
O=C(NCc1ccc(F)cc1)c1cnc2n[nH]c(-c3ccccc3)c2n1 5.62 µM [inhibitor, partial curve, poor fit]
CCOC(=O)c1ccc(NC(=O)Cn2cc(C(=O)C3CC3)c3ccccc32)cc1 28.2 µM [inhibitor, single point]
COc1cccc([S+](=O)([O-])N2CCC3(CC2)CNC(=O)c2ccccc2O3)c1 39.8 µM [inhibitor, single point]
COCCNC(=O)c1ccc(OC2CCN(C(=O)[C@@H](C)N)CC2)c(Cl)c1 2.82 µM [inhibitor, full curve]
CCOc1ccc(C(=O)Oc2c(Sc3ccccc3)c(C)nn2C(C)(C)C)cc1OCC 14.1 µM [inhibitor, single point]
Cc1ccccc1S(=O)(=O)N1CCCC(CCC(=O)NC2CC2)C1 (stereo not given) 39.8 µM [inhibitor, single point]
Cc1ccc(NC(=O)Cn2c(N(C)Cc3ccccc3)nc(C)cc2=O)c(C)c1 15.8 µM [inhibitor, single point]
CC(C)c1ccccc1NC(=O)Cn1ccn2nc(-c3ccccc3)c(CO)c2c1=O 8.91 µM [inhibitor, single point]
CNC(=O)CCn1ncc2cc(OC3CCc4cccc(-c5cccnc5)c43)ccc21 (stereo not given) 35.5 µM [inhibitor, partial curve, poor fit]
Cc1[nH]c2ccccc2c1C1(O)C(=O)N(Cc2ccccc2)c2ccc(Cl)cc21 (stereo not given) 39.8 µM [inhibitor, single point]
Cc1ccc(Nc2ccnc(N3CCCC3C(=O)N3CCC(c4ccccc4)CC3)n2)cc1 (stereo not given) 7.08 µM [inhibitor, partial curve, poor fit]
Cc1cc(NC(=O)C2CCN(C(=O)c3ncn4c3COC(c3ccc(F)cc3)C4)CC2)ccc1F (stereo not given) 39.8 µM [inhibitor, single point]
O=C(CC[C@H]1NC(=O)c2ccccc2NC1=O)NCCn1cnc2ccccc2c1=O 8.91 µM [inhibitor, single point]
NC(=O)Nc1cc(-c2cccc(F)c2)sc1C(=O)N[C@H]1CCCNC1 1.08 µM [inhibitor, full curve]
COc1ccc(-c2ccc(NS(=O)(=O)c3cc(C)c(C)cc3C)cc2)nn1 39.8 µM [inhibitor, single point]
CCn1cc(C(=O)N2CCN(c3cccc(Cl)c3)CC2)c(=O)c2cc(S(=O)(=O)N3CCC(C)CC3)ccc21 25.1 µM [inhibitor, single point]
COc1ccc(O[C@H]2COCCN(S(=O)(=O)c3c(C)noc3C)C2)cc1 12.6 µM [inhibitor, single point]
Cc1ccccc1CN1C(=O)c2ccccc2Sc2ccc(C(=O)NCCc3ccccc3)cc21 44.7 µM [inhibitor, partial curve, poor fit]
Cc1ccc2nc(NC(=O)c3ccc(S(=O)(=O)N4CCC(C)CC4)cc3)sc2c1 39.8 µM [inhibitor, single point]

Potency, active:
Nc1nc2c(ncn2COC(CO)CO)c(=O)[nH]1 0.0857 µM
CC12C(=O)OC(=O)C1(C)C1CCC2O1 (stereo not given) 3.55 µM

Activity change, negative = inhibition, inactive:
CC(C)=CC(=O)N1C[C@@H](NC(=O)Nc2ccc(F)cc2F)C[C@H]1C(=O)N[C@H](Cc1c[nH]c2ccccc12)C(N)=O -7.36%
Cc1cn2nc(C(=O)NCc3cccc(Cl)c3)cc2c(N2CCSCC2)n1 -16%
CN1CC2(CCN(Cc3cccn3C)CC2)CC1C(=O)N1CCOCC1 (stereo not given) 14%
Cc1c(C(=O)Nc2cccc(C(F)(F)F)c2)sc2nc[nH]c(=O)c12 53%
COCC(=O)n1nc(-c2ccco2)nc1NCc1ccccc1Cl 162%
Cc1cc(-c2nccc3c(=O)cc(N(C)c4ccccc4)oc23)ccn1 7.24% [at 87.6 µM]
CC(C)N1C(=O)C2(CCCC2)C1C(=O)Nc1cccc(OC(F)(F)F)c1 (stereo not given) 7.79%
COc1ccc(CN[C@H]2[C@H](O)[C@H](O)C[C@@H]2c2ccc(C(F)(F)F)cc2)cc1 -15.8% [at 87.6 µM]
CCOC(=O)C1CCN(C(=O)CCN(CC)C(=O)c2cc(C)oc2C)CC1 0.452%
